Hit rate of the full screen: of about 150,000 compounds, about 540 (0.36%) showed an effect of 50% or more. The list shows a part of the results.
Test system: Plasmodium falciparum
Assay: Primary screen in NF54 nanoGlo assay, in single point, at 2uM, 72h; a lower Z score goes with more inhibition
Assay type: functional, Erythrocyte
Conditions: timepoint 72 hour

SMILES | % Inhibition | Z score
C1=C(c2ccccc2)CCN(Cc2cccc(OC3CCNCC3)c2)C1 | 2% | -0.38
Cn1nccc1-c1ccnc(NCC23CCCC2NCC3)n1 (centres undefined) | -4% | 0.68
Fc1ccc(C2=CCN(C[C@@H]3CCCN4CCCC[C@H]34)CC2)cc1 | 0% | -0.03
O=C(NCC1CNCCC1c1ccc(F)cc1)N1CCC2(CCNCC2)CC1 (centres undefined) | 6% | -0.88
CCN1CCN(c2cccc(NCc3cncs3)c2)CC1 | -3% | 0.51
O=C(Cc1c[nH]c2ccccc12)N(CCN1CCCC1)[C@H]1CCCNC1 | 4% | -0.66
O=C(NCC1CCN(CCc2c[nH]c3ccccc23)CC1)c1cnc(C2CC2)nc1 | 10% | -1.71
C1=C(c2cn(Cc3ccccc3)c3ccccc23)CCNC1 | -6% | 0.84
CC[C@@H](c1ccc(F)cc1)N1CCC(c2c[nH]c3ccc(C(N)=O)cc23)CC1 | -8% | 1.61
CN1CCC(N2C[C@@H]3C[C@H](C2)c2ccc(-c4ccc5ccccc5c4)c(=O)n2C3)CC1 | -2% | 0.26
c1ccc(N2CC[C@H](NCCc3c[nH]cn3)C2)cc1 | -4% | 0.75
CCOC(C)C(=O)N1C2CCC1C(C(=O)O)C2 (centres undefined) | -11% | 1.67
O=C1NCC[C@@H]1c1cccc(Br)c1 | 0% | 0.06
CC(C)Oc1cncc(N2CCN(C3CC4CCC(C3)N4C)CC2)n1 (centres undefined) | 12% | -2.09
OC1CCCN(CCCNC[C@@H]2[C@H]3CNC[C@@H]23)C1 (some centres undefined) | -11% | 2.39
C[C@H](NCc1ccccc1N(C)C1CCN(C)CC1)c1nc(-c2cccc(F)c2)no1 | 6% | -1.22
CN1CCC2CCC(C1)N2c1nc(N)c2cnn(C)c2n1 (centres undefined) | -4% | 0.87
CC(c1cccc(C#N)c1)N1CCN(C2CC3CCC(C2)N3C)CC1 (centres undefined) | -5% | 0.91
Cc1cccc2c(CCN[C@@H](C)CN3CCOCC3)c[nH]c12 | -2% | 0.37
CCNc1nc(C)cc(N2CCNCC2)n1 | -5% | 0.78
O=C(Cc1c[nH]c2ccccc12)N1CCN(Cc2nc(-c3cccc(C(F)(F)F)c3)no2)CC1 | -2% | 0.33
Fc1ccc2ccnc(N3C[C@H]4CNC[C@H]4C3)c2c1 | -9% | 1.59

SMILES | % Inhibition | Z score
O=C(Cc1c[nH]c2cc(F)ccc12)N(CCN1CCCC1)Cc1ccc(Cl)cc1 | 4% | -0.78
C[C@@H](Cc1ccc(F)cc1Cl)NCC1(CCO)CCOCC1 | -1% | 0.11
Cc1cc(C)nc(Nc2nc(CC(=O)N3CCN(C4CCCCC4)CC3)cs2)n1 | 2% | -0.46
Oc1ccc(C2=CCN(Cc3cccc4[nH]ccc34)CC2)cc1 | 36% | -6.16
Cc1cc2c(N3CCC(N4CC5CCNC5C4)CC3)ncnc2s1 (centres undefined) | -2% | 0.43
O=C(Cc1nnc(-c2ccc3ncccc3c2)o1)N1CCN(C2CCCCC2)CC1 | 4% | -0.68
Cc1[nH]c2ccc(F)cc2c1CCNCc1ccncc1 | -6% | 0.94
CN(c1ncc(Br)cc1C#N)C1CCNCC1 | -3% | 0.53
NCCc1nnc2c(=O)n(C3CC3)ccn12 | -2% | 0.43
Cc1ccc2c(CCN[C@@H](C)CN3CCN(C)CC3)c(C)[nH]c2c1C | 2% | -0.38
Clc1ccc(CNCCN2CCC3(C2)OCCO3)c2ncccc12 | -1% | 0.17
c1cc(-c2cc[nH]n2)cc(-c2ccccc2N2CCNCC2)c1 | -5% | 0.79
Cc1nnc(CN2C3CCC2CC(n2cc(Br)cn2)C3)n1C (centres undefined) | -11% | 1.65
Cc1cccnc1NCCNC[C@@H]1CCCN2CCCC[C@H]12 | -9% | 1.54
Nc1ncc(C(=O)NC2COCC2N2CCCCC2)c(-c2ccccc2)n1 (centres undefined) | 12% | -2.65
CN(C)CC12CNCC1CN(c1ccnc3cc(Cl)ccc13)C2 (centres undefined) | 97% | -19.2
Cc1cc(C)c(CNc2ccc(-c3ccc(F)cc3)nn2)c(=O)[nH]1 | -4% | 0.66
CN1C2CCC1CC(OC(=O)C1CCC(C(=O)OC3CC4CCC(C3)N4C)(c3ccccc3)c3ccccc31)C2 (centres undefined) | 47% | -7.18
OCCNc1cc(N2CCC3(O)CCNCC3C2)ncn1 (centres undefined) | 5% | -0.83
O=C(NC1COCC1N1CCCC1)c1ccc2c3c([nH]c2c1)CCCC3 (centres undefined) | 9% | -1.33
O=C(C[C@H]1CCCc2ccccc21)N1CCCN(C(=O)Oc2ccccc2)CC1 | 11% | -2.37
CN(C)c1ncc(CNCCc2c[nH]c3cc(F)c(Cl)cc23)cn1 | -2% | 0.3

SMILES | % Inhibition | Z score
c1cnn(-c2ccc(CNC3(c4nc(-c5ccsc5)no4)CCCCC3)cc2)c1 | 0% | 0.05
Oc1cccc(CNC[C@H](O)c2cccc(Br)c2)c1Cl | 10% | -1.74
CO[C@H]1C[C@@H](CN2CCCC2)N(C(=O)Cc2c[nH]c3ncccc23)C1 | -7% | 1.03
O[C@@H](CNC1(c2ccccc2)CC1)C(F)(F)F | -3% | 0.54
N#Cc1ccc(-c2cccc(C(=O)NCC3CCNCC3)c2)cc1Cl | -6% | 1.26
CN1CCN(c2ccc(C(F)(F)F)cc2NCc2cnc[nH]2)CC1 | 52% | -7.95
O=C(Nc1cnc(N2CCNCC2)nc1)C12CCCC1NCC2 (centres undefined) | -7% | 1.38
Nc1nc(N2CCC3CCC(C2)N3)c2c[nH]nc2n1 (centres undefined) | 1% | -0.12
CC(Cc1ccc(F)cc1)NCC(O)c1ccsc1 (centres undefined) | 6% | -1.13
Fc1ccc2nc(C(F)F)nc(N[C@H]3CCNC4(CCC4)C3)c2c1 | 7% | -1.3
CC(C)(O)c1cncc(-c2ccc(C(=O)N[C@H]3CN4CCC3CC4)cc2)c1 | -5% | 1.16
COc1cccc(CN2[C@@H]3CC[C@H]2CC(OC2CCN(CC(C)C)CC2)C3)n1 (some centres undefined) | 1% | -0.16
CCC(CC)n1ncc(C(=O)NCc2cccc(C(C)=O)c2)c1C | -1% | 0.12
c1ccc2c(N3CC4CCNCC4C3)nccc2c1 (centres undefined) | 10% | -2.17
Nc1ncccc1CN1CCC(c2c[nH]c3ccc(F)cc23)CC1 | 3% | -0.58
FC(F)(F)c1cc(C2CC2)nc(Nc2nc3ccccc3n2CCN2CCCCC2)n1 | -13% | 2.27
Cc1nc(N2CCC3C(CCCN3C)C2)c2cc[nH]c2n1 (centres undefined) | 0% | 0.04
CCN1CCN(C(=O)[C@H](C)N2CC=C(c3cncc4ccccc34)CC2)CC1 | 5% | -1
CC(C)C[C@H](C)N(C(=O)c1cccc2c1oc(=O)n2C)c1ccc2[nH]ccc2c1 | 0% | -0.01
CCCOc1cncc(-c2ccc3c(c2)CNCC3)c1 | 24% | -4.72
O=C(N[C@@H]1CCC[C@@H]1N1CCC(O)C1)c1c[nH]c(-c2ccccc2)n1 (some centres undefined) | -2% | 0.46
CC(Cc1ccc(F)cc1)NCC1CCN(CC(F)(F)F)C1 (centres undefined) | -10% | 2.25

SMILES | % Inhibition | Z score
COCCN1C(=O)N(C)C(=O)C12CCNCC2 | -7% | 1.23
Cc1cc(NC2CCC(C)C2)cc(N2CCN(C)CC2)c1 (centres undefined) | 11% | -2.4
Clc1c[nH]c2ncnc(N3CCNCC3)c12 | 4% | -0.88
COCCN(C)C[C@H](O)CN1CC=C(c2c[nH]c3ncccc23)CC1 | 1% | -0.18
CN(C)C1(CNC(=O)c2cccc(-c3ccc4ocnc4c3)c2)CCCCC1 | -5% | 0.95
c1cc(-c2ccc3c(c2)CNCC3)c2cc[nH]c2n1 | -3% | 0.52
CC(C)N1CCO[C@@H](CN2CCN(C(=O)Cc3c[nH]c4ncccc34)CC2)C1 | -7% | 1.47
CN1CCC2CN(c3ncnc4[nH]ccc34)CC2C1 (centres undefined) | 3% | -0.54
COCCOc1cncc(C(=O)N[C@@H]2CCC[C@@H]2N2CCC(O)C2)c1 (some centres undefined) | -2% | 0.33
Cc1ccc2c(CCNCc3cccc(O)c3Cl)c[nH]c2c1 | -6% | 1.09
CC(C)c1nc(N2CCC[C@@]3(CCNC3)C2)c2cc[nH]c2n1 | 2% | -0.48
Cc1ccc2[nH]nc(-c3cccc4c3CCNC4)c2c1 | -3% | 0.39
CN1CCC[C@H](N2CCN(c3cncc(Br)c3)CC2)C1 | -9% | 1.51
C[C@@H](Cc1ccc(O)cc1)NCc1ncc[nH]1 | -3% | 0.54
O=C(C(=O)N1CC(c2ccc(F)cc2)C2C1C1CCN2CC1)N1CCOCC1 (centres undefined) | 1% | -0.12
O[C@@H](CNCc1ccc2c(c1)CCO2)c1ccc(F)c(F)c1 | 72% | -12.64
FC(F)COc1cc(CNC2CCN3CCCC3C2)ccn1 (centres undefined) | 0% | 0.1
c1ccc(-c2cncnc2N2CC[C@]3(CCNC3)C2)cc1 | -14% | 2.09
COc1ccc(C2CN(C(=O)N3CCN(C)CC3)C3C4CCN(CC4)C23)cc1 (centres undefined) | 3% | -0.57
Cc1ccc(CNc2ncnc(N)c2Cl)c(N2CCCC2)n1 | 50% | -8.64
CN1CCCN(Cc2cc(C3CC3)on2)CC12CCNCC2 | -1% | 0.15
